The labels stand for the following.
B1: tRNA (parent)
chain: CUCUCGGUAGCCAAGUUGGUUUAAGGCGCAAGACUUUAAUUUAUCACUACGAAAUCUUGAGAUCGGGCGUUCGACUCGCCCCCGGGAGAUUUUUUCCUCGAGCAA

Consider 167 variants from the RNAGym collection of RNA variant scans (doi:10.1101/gad.245936.114).

Variants at the floor of the assay are shown more often than the library holds them.

The data set covers variants of B1. Put plainly: nonsense suppression (GFP-seq) (ratio to wild type); higher = more function; SUP4oc tRNA, yeast GFP reporter sort-seq. The gist of the method:
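Raffinose/galactose medium with 80 mg/L adenine was used to grow yeast carrying genome-integrated tRNA variants (~3% random-mutation library), RFP, and a galactose-driven GFP ochre reporter. Cells went into GFP/RFP bins, which were Illumina-sequenced, and variants with ≥100 reads and ≥30 cells were scored. Nonsense suppression (GFPSEQ) is the per-bin median GFP/RFP weighted by estimated cell share and expressed relative to the unmutated parent tRNA.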
For G32U A62C U63C, the nonsense suppression is ≤ 0.026.

With C34U C81A G88C, the nonsense suppression is ≤ 0.026. For the variant U2G U71C C77G, the nonsense suppression is ≤ 0.026. On to G26C C27A G59C U70G C75A, for which the nonsense suppression is ≤ 0.026. Under C5A A60U stands ≤ 0.026; under G19U C34G G61C G69C, ≤ 0.026. Next, C11U U21C G61A A87U: ≤ 0.026; G18A A24G: ≤ 0.026.

On to U63G U70C C75U, for which the nonsense suppression was found to be 0.099. Next, C29A U58C A60C A62U: ≤ 0.026. Next, U16G A24G A33U U70C: ≤ 0.026; C5G A13G A14U A33G: ≤ 0.026.

In the case of C56G G69C U70A, the nonsense suppression was ≤ 0.026.

In the case of C11U G19U G26C C34A G65A, the nonsense suppression is ≤ 0.026. Under A9C G25C A30C C34A stands ≤ 0.026. Consider A23U G25A, for which the nonsense suppression is ≤ 0.026. Turning to G19U A31U G85C, the nonsense suppression was ≤ 0.026. Under A9U U63A C82G stands ≤ 0.026; under U4C G6A A23G, ≤ 0.026. For C5U A24U U35A, the nonsense suppression was ≤ 0.026. Under C3U G25C stands ≤ 0.026; under G25A A30U, ≤ 0.026; under A14G U35C G73C, ≤ 0.026.

As to G18C G26C, the nonsense suppression is ≤ 0.026.

On to G18U U35C, for which the nonsense suppression was ≤ 0.026. Regarding A23G A24G C27U A62G, the nonsense suppression is ≤ 0.026. Regarding G7U C83A, the nonsense suppression is ≤ 0.026. For U22G C75U, the nonsense suppression worked out at 0.981. Turning to U2A C3U U20C G65A, the nonsense suppression was ≤ 0.026. Next, A14U G78C G84A G86C: ≤ 0.026; C5U G59A U76G: ≤ 0.026; G7C G28A C80A: ≤ 0.026. Under U16C C68U stands 1.03. On to U4A G25A G26C U55A U70G, for which the nonsense suppression is ≤ 0.026. Next, A14G G25U: ≤ 0.026; G18C G25C: ≤ 0.026; C56G G78C: ≤ 0.026. Next, A24C A87C: ≤ 0.026; U8C C83A: ≤ 0.026. Consider U8A U57C A74C G78U G85U A87U, for which the nonsense suppression was ≤ 0.026. For the variant U20G G59A, the nonsense suppression is ≤ 0.026. Next, U17G G25C A31G G78C A87U: ≤ 0.026; C27A U55A: ≤ 0.026; U8G A31U A33G G69A G73U C75A: ≤ 0.026.

Consider A31C C56U G61U C80G, for which the nonsense suppression is ≤ 0.026.

In the case of U21G G78U C82A, the nonsense suppression was ≤ 0.026.

On to U2A G15U G19C G32C, for which the nonsense suppression is ≤ 0.026. Next, U63G C80G: ≤ 0.026; U70G G85U: ≤ 0.026; U76A G88C: ≤ 0.026.

Consider C3G A24C A31C, for which the nonsense suppression is ≤ 0.026.

As for G65A A87G, the nonsense suppression was ≤ 0.026. For U55A A60U U76C, the nonsense suppression was ≤ 0.026. As for U2C C3U, the nonsense suppression was ≤ 0.026.

In the case of C1A U2A A13U U16G G61A G66U G88C, the nonsense suppression was ≤ 0.026. With U20G U22A C56A A74U, the nonsense suppression is ≤ 0.026. Under G7A G10A stands ≤ 0.026. For U2G G19C C72G, the nonsense suppression is ≤ 0.026. Next, C29A U58G A89U: ≤ 0.026; C1A C29A C79G: ≤ 0.026; G19U A23U C34G A87G: ≤ 0.026. Next, A31C A54U U57C U71A: ≤ 0.026; U8A G84U: ≤ 0.026; U63A G84C A87C: ≤ 0.026. For G73C G78U, the nonsense suppression is ≤ 0.026.

As to C34U A60U G66A, the nonsense suppression is ≤ 0.026. Next, U55A U70C C75A C79A: ≤ 0.026; A31G C56U U70G G85A G86A: ≤ 0.026; G59C U70G: ≤ 0.026. Next, U2A U35G U55A G73U U76G: ≤ 0.026; A9C C56U C75G G86C: ≤ 0.026; G6U U35G: ≤ 0.026.

For G25A G61A G84C, the nonsense suppression is ≤ 0.026. For the variant C56U U63C, the nonsense suppression is ≤ 0.026. Take A9U G61A G88U: the nonsense suppression is ≤ 0.026. Take C5G G19U U57C: the nonsense suppression is ≤ 0.026. Under A30G A33U G65C stands ≤ 0.026; under C3U C34A A87G, ≤ 0.026. As to G7U U17C U22C, the nonsense suppression is ≤ 0.026.

With G10U U17C U22A, the nonsense suppression was ≤ 0.026. Next, C12U A23G G85U: ≤ 0.026; C5U G15A A31C U35C: ≤ 0.026.

In the case of U4C U21G G61C, the nonsense suppression was ≤ 0.026. Under U55G C79G C83G stands ≤ 0.026; under G26A G61A, ≤ 0.026; under C29U U35G G61A C64G G84C, ≤ 0.026. Turning to C29A A33U, the nonsense suppression was ≤ 0.026. Under A14U G69C A87U stands ≤ 0.026; under A9C G69A, ≤ 0.026. Under G6A U8G stands ≤ 0.026. Under G7U A31G C34A C75A stands ≤ 0.026; under U2C G10A A24G A30U C34A, ≤ 0.026; under C5U G6C G15U C29A, ≤ 0.026. In the case of U20A C77U G78A C80A, the nonsense suppression was ≤ 0.026. Next, G32C A62G: ≤ 0.026; A54C G61U G65A: ≤ 0.026; U76G C83A G88A: ≤ 0.026. Under U20G A33U U55G G65C stands ≤ 0.026.

U21A U22A G28C U55A G69A: the nonsense suppression is ≤ 0.026. Regarding U71A G86C, the nonsense suppression was ≤ 0.026.

On to G26A A54C A62U U63A G65C C79A C81G, for which the nonsense suppression was ≤ 0.026. Under U35A G73C stands ≤ 0.026. For the variant G61U G78U, the nonsense suppression stood at 0.165. Next, C12A C29U C34A U55C A74U: ≤ 0.026; C5A G7U G18C U20G A23U: ≤ 0.026; G7C C11G: ≤ 0.026. Under A23U A60G stands 0.0537; under C3U A30U A33G, ≤ 0.026.

Turning to U63C G73U A89G, the nonsense suppression is ≤ 0.026. Regarding G26C C34U U58A A62G, the nonsense suppression was ≤ 0.026. Next, G32U G66C: ≤ 0.026; U35C C80G: ≤ 0.026. As for C56G G67A A74U U76A, the nonsense suppression was ≤ 0.026. Next, A14G U21G A89C: ≤ 0.026; A9G C72U: 0.0591. Next, C5U G65A C82A: ≤ 0.026; C12U A54C: 0.0512. In the case of G10U C27G, the nonsense suppression is ≤ 0.026. Take U35A U57G G65U C82A: the nonsense suppression is ≤ 0.026. Next, C1A U57G U70A: ≤ 0.026; U2C U4A: ≤ 0.026; U20C G61U G78C: ≤ 0.026. Under G7U C79A G86C stands ≤ 0.026; under C29U A33G G59C U71C, ≤ 0.026. Under G10U U70C C80G stands ≤ 0.026; under C27G U57G, ≤ 0.026; under G25A C29G A60G, ≤ 0.026. For the variant U22C C68A C77U, the nonsense suppression is ≤ 0.026. Under U17A A23G C68G stands ≤ 0.026; under G66A C68A G73U A87C, ≤ 0.026; under A23U C29U, 0.112. Next, U17C A24G: 0.0323; A24G A31C A87U: ≤ 0.026.

On to C75A A87U, for which the nonsense suppression was ≤ 0.026. Next, C56A C81A: ≤ 0.026. In the case of C1U C5U C34A, the nonsense suppression was ≤ 0.026. With G59C A74U, the nonsense suppression was ≤ 0.026.

In the case of A62C C79G, the nonsense suppression is ≤ 0.026.

With C5U C56G G69U G86U, the nonsense suppression is ≤ 0.026. Under A54C U58A stands 0.135; under C64U U70C, ≤ 0.026; under C5G C64U U71C, ≤ 0.026. Under A9U G25U A54U G61C U63A G85A stands ≤ 0.026; under G6U U55C A89C, ≤ 0.026. Under G19C C27G C79G stands ≤ 0.026; under G19C U21C, ≤ 0.026. Regarding U22G C75A A87U, the nonsense suppression was ≤ 0.026. Next, G26C A74G: ≤ 0.026; A33G G61U: 0.119; A9G C82U: 0.531. Next, G28A C34G G59A: ≤ 0.026. For C1G C3A A31C, the nonsense suppression was ≤ 0.026. G18A G65C A89C: the nonsense suppression is ≤ 0.026. Turning to A23C G84A A89U, the nonsense suppression is ≤ 0.026. Next, G15A G66C U71A G85C: ≤ 0.026; C3G A30G U58A: ≤ 0.026; G6C U22G U35A: ≤ 0.026. As to U8G G67C, the nonsense suppression is ≤ 0.026. Next, U22G C29U: 1.15.

As to U4C A9U G25U A31C, the nonsense suppression is ≤ 0.026.

As to C3G U20C U57C, the nonsense suppression is ≤ 0.026.

For G10C C56G U71G, the nonsense suppression is ≤ 0.026. As to C5U U35A U58G C72A, the nonsense suppression is ≤ 0.026. Under C5A G7U U17C stands ≤ 0.026; under C12U U35C U58A, ≤ 0.026; under C5A U21G C56U C82A, ≤ 0.026.

As for U17C A30G U58G, the nonsense suppression was ≤ 0.026.
